Out of some 71,000 compounds screened, about 1,800 (2.5%) were called active. Inconclusive means that the source gave no clear call. Such entries were picked first, then a sample of the others. Calls come from the whole dose curve; as a rule, active = well fitted activation curve with a large enough effect in the signal ratio, with a control signal flat (not every such curve was filed as active); inconclusive = small, poorly fitted or top-dose-only effect, or effect the other way, or a change in a side signal; inactive = flat fitted curve, though single readings scatter; the % refers to the signal ratio. Potencies beside an inconclusive call are fits to weak or partial responses and may not hold up.
Assay: Cell signaling CRE-BLA (Fsk stim); for activity change, negative = inhibition: % of control where 0% means no effect
Conditions: CHO CRE-bla reporter (cAMP response element driving beta-lactamase), forskolin EC10, beta-lactamase ratio; activity change, negative = inhibition: at 38.2 µM (top of the series) unless noted
Summary of the method: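 qHTS titration format; CRE-bla CHO reporter; stimulus EC10 NKH 477, a water-soluble forskolin. Read: CCF4 460/530 nm ratio. Potency expressed as AC50 for activators or inhibitors.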
Potency is the fitted concentration of half-maximal effect; tags give direction and shape of the fitted curve.

| Compound | activity change, negative = inhibition | Potency |
| --- | --- | --- |
| CC1c2[nH]c3ccccc3c2CCN1C(=O)Nc1ccccc1 (stereo not drawn) | inconclusive: -23.3% | – |
| COc1ccc(OC)c(Nc2cc(C)nc3nc(C)nn23)c1 | – | inconclusive: 12.6 µM [rising, partial curve] |
| CC(C)(C)c1cc(CCC(=O)N2CCNCC2)c(C(C)(C)C)cc1O | inconclusive: -4.96% | – |
| COC(=O)c1cc2c(=O)n3ccccc3nc2n(C)c1=N | – | active: 7.94 µM |
| O=S(=O)(NCCOC12CC3CC(CC(C3)C1)C2)c1cccc2nsnc12 | inactive: 13.9% | – |
| Cc1noc(C)c1-c1nccc(Nc2ccc(F)cc2)n1 | inconclusive: 20.2% | – |
| Cc1cc(=O)n2nc(N3CCC(C(=O)NC4CCCc5ccccc54)CC3)sc2n1 (stereo not drawn) | inconclusive: 15.9% | – |
| C(=N\C(/N=C/c1ccco1)c1ccco1)/c1ccco1 | inactive: 20.6% | – |
| Cc1ccc(C)c(NC(=O)c2ccc3c(c2)N(Cc2ccc(F)cc2)C(=O)CS3=O)c1 (stereo not drawn) | inactive: -1.19% | – |
| CCCc1cc(N2CCCC(C(=O)Nc3cc(Cl)ccc3OC)C2)n2ncnc2n1 (stereo not drawn) | inconclusive: 29% | – |
| O=C(c1ccc(F)cc1)N1CCN(C2CC3CCC2C3)CC1 (stereo not drawn) | inactive: -3.04% | – |
| O=C(CSc1nnc(-c2ccc3c(c2)OCCO3)o1)N1CCCC1 | – | inconclusive: 6.31 µM [rising, partial curve] |
| COc1ccccc1-c1noc(-c2ccccc2C(=O)Nc2ccccc2)n1 | inactive: -20.1% | – |
| COc1ccccc1Oc1ccc(S(=O)(=O)N2CCOCC2)cc1S(=O)(=O)N1CCOCC1 | inactive: 0.0685% | – |
| O=C(Nc1ccccc1C(F)(F)F)c1ccc(F)c(S(=O)(=O)N2CCOCC2)c1 | – | inconclusive: 0.631 µM [falling, full curve, poor fit] |
| COc1ccc(OC)c(NC(=O)c2cc(-c3cc(Cl)ccc3O)n[nH]2)c1 | – | inconclusive: 5.01 µM [rising, full curve, poor fit] |
| COc1ccc(-c2nnc(-c3cccnc3)o2)cc1OC | – | active: 10 µM |
| COc1ccc(-c2cc(C(F)(F)F)n3nc(C(=O)N4CCOCC4)nc3n2)cc1 | inconclusive: 26.8% | – |
| COc1ccc([C@@H]2CC(=O)c3c(O)cc(O[C@@H]4O[C@@H](CO[C@@H]5O[C@@H](C)[C@@H](O)[C@@H](O)[C@H]5O)[C@@H](O)[C@@H](O)[C@H]4O)cc3O2)cc1O | inactive: -10.3% | – |
| CCCOc1ccc(C(=O)c2nc3c(n2O)CCCC3)cc1 | – | inconclusive: 25.1 µM [rising, single point] |
| CCOc1ccccc1N1C(=O)CC(Nc2ccc(N3CCOCC3)cc2)C1=O (stereo not drawn) | inconclusive: -13.4% [at 7.6 µM] | – |
| COCCNC(=O)C(c1ccc(C)o1)N(C(=O)c1snc(C(N)=O)c1N)c1cc(C)cc(C)c1 (stereo not drawn) | inactive: 1.08% | – |
| O=C(CCCOc1ccc(Cl)cc1)N1CCOCC1 | inconclusive: -5.28% | – |
| Cc1[nH]c2ccccc2c1C(c1ccccn1)N1CCC(C(N)=O)CC1 (stereo not drawn) | inconclusive: -29.2% | – |
| CCSc1sccc1C1C(C#N)=C(N)N(c2cccnc2)C2=C1C(=O)CC(C)(C)C2 (stereo not drawn) | inconclusive: 17.3% | – |
| CCC1(CC)C(=O)NC(=O)NC1=NCCc1ccc(O)cc1 | inconclusive: 26.2% | – |
| CCOC(=O)CCC(=O)c1c(C)oc2ccc(OC)cc12 | inactive: 12.3% | – |

| Compound | activity change, negative = inhibition | Potency |
| --- | --- | --- |
| O=C(CCS(=O)(=O)c1cccc2nonc12)N1CCCc2ccccc21 | inconclusive: -4.89% | – |
| COc1ccccc1CNc1ncncc1-c1cccc(C#N)c1 | inconclusive: 25% | – |
| CCc1nc(N2CCCCC2C)c2oc3ccccc3c2n1 (stereo not drawn) | – | active: 2.51 µM |
| Cc1cc(Oc2ccccc2)nc(-c2ccccc2O)n1 | – | inconclusive: 12.6 µM [rising, partial curve] |
| CCOC(=O)C1CCN(C(=O)CCNC(=O)Cn2ccc3ccccc3c2=O)CC1 | inconclusive: -5.66% | – |
| COCCSc1nnc(NC(=O)Cc2cccs2)s1 | inconclusive: 0.767% | – |
| CCOC(=O)C1(C)NC(c2ccc(N(C)C)cc2)C2C(=O)N(CC)C(=O)C21 (stereo not drawn) | – | inconclusive: 0.631 µM [falling, single point] |
| COc1ccccc1NC(=O)N1CCN(c2cc(-c3ccccc3)nc3ncnn23)CC1 | inconclusive: -6.4% | – |
| COCCn1c(=O)c(-c2cn(C)c3ccccc23)nc2cncnc21 | – | inconclusive: 6.31 µM [rising, partial curve] |
| COc1ccc(-c2nc(N3CCCC3)[nH]c(=O)c2C#N)cc1 | inconclusive: 14.6% | – |
| Cc1cccc(NC(=O)c2cc(NC(=O)c3ccco3)ccc2N2CCCCC2)c1 | inactive: 6.52% | – |
| Brc1ccc(OCCn2ccnc2)cc1 | inconclusive: 4.21% | – |
| O=S(=O)(CCOc1ccccc1)c1nc2ccccc2[nH]1 | – | inconclusive: 3.16 µM [falling, partial curve] |
| COC(=O)CSc1nnc(CNC(=O)c2ccco2)n1-c1ccc(F)cc1 | inactive: -27.9% | – |
| O=C(Oc1cccc2ccccc12)c1ccco1 | inconclusive: -1.64% [at 7.6 µM] | – |
| O=C(Nc1nnc(CC2=CCCCC2)s1)c1cccs1 | inconclusive: 22.1% | – |
| O=C(O)CSc1sc(=S)sc1SCC(=O)O | inconclusive: -4.26% | – |
| Cc1cc2ccccc2n1CCNC(=O)C(C)(C)C | – | inconclusive: 12.6 µM [rising, single point] |
| O=C(c1csnn1)N1CCC2(CCCN(Cc3cc(C(F)(F)F)cc(C(F)(F)F)c3)C2)CC1 | inconclusive: -3.82% | – |
| Cc1ccc(S(=O)(=O)Nc2nc3ccccc3nc2NCc2ccco2)cc1 | – | inconclusive: 10 µM [rising, single point] |
| COc1ccc(Nc2ncc3c(n2)CC(c2ccccc2)CC3=O)cc1 (stereo not drawn) | – | inconclusive: 5.01 µM [rising, partial curve] |
| COc1cccc(-c2cc(C(=O)NCCc3ccccc3)no2)c1 | inconclusive: -8.06% | – |
| CCNC(=O)N1c2ccc(OCC)cc2C(C)=CC1(C)C | – | inconclusive: 25.1 µM [rising, single point] |
| COCCSc1nnc(NC(=O)CSCc2ccccc2)s1 | inconclusive: 9.05% | – |
| Cc1ccc(C2NC(=O)c3ccccc3N2)s1 (stereo not drawn) | – | inconclusive: 10 µM [rising, single point] |
| O=c1cnc2cnc(N3CCOCC3)nc2n1CCc1ccccc1 | inactive: -5.66% | – |

— PubChem BioAssay AID662 (National Center for Advancing Translational Sciences (NCATS), 2007)
